The supplement of paper PMC3334620
The full ranking holds about 33,000 sequences; the median of “E-score (-0.5 to 0.5)” is about -0.053, and the highest 2% start at about 0.37. This is one part of the list.

These sequences were tested against Hap1 (UniProt P0CE41) (assay: PBM E-score (8-mer binding enrichment) (E-score (-0.5 to 0.5)); higher = stronger / more preferred TF binding; most listed sequences are background and not binding sites). Conditions: protein concentration: 200 nM; construct: GST-DNA-binding domain.
Sequence of UniProt P0CE41 (P0CE41 whole entry, the tested form may be a part): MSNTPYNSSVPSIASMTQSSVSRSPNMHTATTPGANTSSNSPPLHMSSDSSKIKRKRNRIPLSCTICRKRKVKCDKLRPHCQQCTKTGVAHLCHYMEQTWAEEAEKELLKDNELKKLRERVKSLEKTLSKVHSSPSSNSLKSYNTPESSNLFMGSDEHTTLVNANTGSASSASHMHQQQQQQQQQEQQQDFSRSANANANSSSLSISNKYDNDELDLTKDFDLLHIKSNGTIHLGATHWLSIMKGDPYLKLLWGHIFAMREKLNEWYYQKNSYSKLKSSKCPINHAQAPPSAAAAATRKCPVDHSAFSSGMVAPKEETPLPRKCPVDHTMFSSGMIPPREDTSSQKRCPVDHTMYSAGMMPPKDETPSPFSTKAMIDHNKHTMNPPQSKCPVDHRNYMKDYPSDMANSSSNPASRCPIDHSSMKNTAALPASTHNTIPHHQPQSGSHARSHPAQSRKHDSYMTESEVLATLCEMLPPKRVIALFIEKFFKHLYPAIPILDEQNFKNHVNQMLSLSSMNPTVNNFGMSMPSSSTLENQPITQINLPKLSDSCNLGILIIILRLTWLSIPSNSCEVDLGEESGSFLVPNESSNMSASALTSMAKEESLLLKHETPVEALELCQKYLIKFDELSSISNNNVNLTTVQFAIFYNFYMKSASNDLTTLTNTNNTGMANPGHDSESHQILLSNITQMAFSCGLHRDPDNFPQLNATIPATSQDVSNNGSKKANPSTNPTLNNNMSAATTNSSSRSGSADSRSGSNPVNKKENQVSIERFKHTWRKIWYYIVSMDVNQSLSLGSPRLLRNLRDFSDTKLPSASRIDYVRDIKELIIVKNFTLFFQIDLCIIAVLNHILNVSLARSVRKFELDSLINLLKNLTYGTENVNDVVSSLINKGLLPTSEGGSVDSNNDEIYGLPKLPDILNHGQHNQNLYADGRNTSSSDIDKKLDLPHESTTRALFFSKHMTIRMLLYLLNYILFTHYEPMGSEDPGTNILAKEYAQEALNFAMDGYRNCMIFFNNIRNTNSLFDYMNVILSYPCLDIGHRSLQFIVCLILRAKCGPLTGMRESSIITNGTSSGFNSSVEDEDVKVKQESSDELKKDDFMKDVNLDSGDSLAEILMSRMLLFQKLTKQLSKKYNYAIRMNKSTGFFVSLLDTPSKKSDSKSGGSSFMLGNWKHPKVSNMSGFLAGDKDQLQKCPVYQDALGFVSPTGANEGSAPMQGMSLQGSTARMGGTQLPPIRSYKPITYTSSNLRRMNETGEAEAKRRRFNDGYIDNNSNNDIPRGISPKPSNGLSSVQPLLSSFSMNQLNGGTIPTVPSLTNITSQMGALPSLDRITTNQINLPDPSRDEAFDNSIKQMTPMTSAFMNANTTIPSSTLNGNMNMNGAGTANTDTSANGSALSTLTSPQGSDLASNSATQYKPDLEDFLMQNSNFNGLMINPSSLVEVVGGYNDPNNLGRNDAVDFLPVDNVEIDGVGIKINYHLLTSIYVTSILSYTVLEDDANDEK
Method: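 Universal 'all 10-mer' protein binding microarrays (Agilent AMADID 015681) probed with GST-tagged S. cerevisiae TFs (full-length or DBD) made by in vitro transcription/translation (PURExpress), about 100-200 nM. Bound TF was detected with fluorescent anti-GST. Each ungapped 8-mer (which stands for itself and its reverse complement) is scored by the PBM enrichment score (E-score), a modified Wilcoxon-Mann-Whitney statistic from -0.5 to +0.5, computed with the Universal PBM Analysis Suite. Scale: above 0.35 generally sequence-specific binding.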

Sequence	PBM E-score
AAACGCGA	0.145
GTCGCGTA	-0.051
ATCGCCAT	0.0823
ACTTATAG	-0.0992
AAGCGAGT	0.176
ATTAAAAG	-0.0542
ATAAAGAC	0.0444
GGATTACA	0.0168
CGAGAATA	0.0543
ACACACAC	-0.283
AGTGATAT	0.0216
CATCTTGG	-0.129
CATCGGCA	0.266
CGAAGTAC	0.18
GAAGGGGC	-0.204
TGAGAACA	-0.179
CAACGAAG	-0.27
AGCGTACT	-0.0657
AAGGCCAG	-0.0606
CTACCAAG	-0.298
ATATGTTG	-0.0945
AGACCAAT	-0.221
AGGGCGGG	0.141
TACTTGAA	-0.264
GCAGTACA	-0.136

Sequence	PBM E-score
ATGGACAG	-0.24
ATATCTCC	0.437
GTGAAGAA	-0.0665
GTCGAGAA	-0.171
AGGTGCAA	-0.128
GGAAATCA	0.0747
CCCCAAAG	-0.293
AAGATCGC	-0.0915
CCGGGAAG	0.294
AGAGTATG	0.00796
CCAATTTC	0.168
CGATACAG	0.109
AAATCGCT	0.0274
CAGTAGCC	-0.144
CCGTAGCA	-0.141
CATTGACG	-0.206
GAACGAAA	-0.0605
AGGTTAAC	0.157
CCAGTGGG	-0.0849
GGTACTTA	-0.00883
ACCTTTGC	-0.0773
ATAGAGTC	-0.0717
CCGTCCGA	0.399
ACACGTCC	0.0365
GACAGACA	0.214

Sequence	PBM E-score
AACATGTC	0.1
CTGGAGGC	-0.096
CTTTGCCA	0.0049
AGTTTATC	0.102
ATTGCGGC	0.101
ATTATCTG	0.0265
ACCGCAAA	0.0946
ATTCGGGA	0.197
CCATCGTA	-0.0897
CCCGGGAA	0.339
AATTCTTA	0.0131
AATAGAGG	-0.0248
CCGCCGAG	0.352
ATCTTACG	0.0394
AAGTTTGG	-0.104
CGACAACG	0.105
AACTGCGG	0.323
ATTAACGA	0.0607
AACATGGA	-0.0735
GATGTGCC	-0.0518
GGGATAGA	-0.0284
GACCTGGC	-0.00044
AAGAAGAC	-0.157
CAGAATTC	-0.0591
AACCCACA	-0.182

Sequence	PBM E-score
CCCGATCA	0.155
CACAGTGG	-0.0715
GGACCGAC	0.341
AGATAGCC	0.0418
CGCAGACC	0.00648
ATCTTCTG	-0.0339
CCCGACGC	0.243
AGTAACGG	0.201
GGGATCAC	-0.0893
CGGCCCTC	0.177
CCGATAGC	0.372
AGGAGTAT	-0.265
CCTCCGCA	0.173
GGGTGTGA	-0.0112
CATCCATA	-0.0703
CACAGGAA	-0.136
ACAATCGG	0.329
GCATTGAC	-0.194
GCTAGCAC	-0.144
TACCCATA	-0.258
CACCGCAA	0.245
GCTCCTCC	-0.146
AGACAAAA	-0.0647
ATGCTGGA	-0.113
GCACTCGC	-0.0299

Sequence	PBM E-score
GCAGCGGA	0.158
AAGTGACA	-0.105
GGTGTTAC	0.0592
AACACGAC	-0.128
AATCTCAA	-0.0418
CCACCTCA	-0.103
ACTTAGCA	0.0386
GAGCTTCC	0.175
AAAATAGC	-0.251
ACTTTTTC	0.0285
CAGCCTCA	-0.227
CGTGTTGC	0.0334
CGATCGCG	0.22
AGTAACTG	-0.164
ACGGACAA	0.335
AGCAAACT	-0.0518
CAAGGGGC	-0.0889
AAGACGCG	0.112
ACATCCGA	0.382
TAATGACA	-0.0837
ACACAATG	-0.2
CCGCTACG	0.349
CGGTTCTC	0.02
GAGGCACC	-0.0321
ACCTGTTG	-0.108

Sequence	PBM E-score
ACGACTTC	-0.124
GGCGTACA	-0.132
ATATTCAC	-0.0291
CCACGTCC	-0.0087
CACTTATC	0.0508
CTGGGCAA	-0.151
CAATTTAA	-0.0535
ACTGGTAG	-0.206
CAAGCAAA	-0.15
CCATCTGA	-0.17
TAAGCTTA	-0.264
TTCAAAAA	-0.0615
CACACATC	-0.11
GTCGGACA	0.347
TGGAGACA	-0.0431
TCAGTTAA	-0.0178
ACTGCATG	-0.114
ACAGCATG	-0.163
AATAGCCT	-0.152
GCTTTAGA	-0.0658
AGGATATA	0.0407
CCAGTGTA	-0.136
CGTCGTTA	0.0443
AACTAATT	0.0862
GCTTTCTA	-0.0856

Sequence	PBM E-score
CACACAAG	-0.23
GGCGACCA	-0.0411
GGCTGTTA	0.113
GTAGAACA	-0.266
ACCTCGCC	0.0632
AAAACTGG	-0.0727
ACAGCACT	-0.0793
TATACATA	-0.222
CGAAGCAC	-0.119
CAATGTTA	-0.236
CGGGACAC	0.228
CAAGAATG	-0.0801
GATAACAC	0.129
AGGTATCC	0.0381
ACATACAC	-0.146
AGGGACTA	-0.209
ATGGTGAC	-0.329
CAGAACTC	-0.141
AATGATGG	0.0541
AATTCCCG	0.34
CTTCATCA	-0.0477
CGATAGGC	0.17
GCGTGCGA	-0.094
GGAGGAAA	0.193
GTGCTGCA	0.0816

Sequence	PBM E-score
CGTGAAAA	-0.0852
CCCGGAGA	0.428
GCTGACGA	-0.228
ATCAGGGC	-0.185
CAGTAGAA	-0.229
AACTTCCT	-0.131
CGGGTGAC	0.234
GCGACGCC	0.173
GCCGTCAC	0.162
AGAATATG	-0.0775
CTATTCTA	-0.106
CACAAGGA	-0.286
ACTGGGGG	-0.222
AATTGCGG	0.102
ATAAAGCC	0.292
GTTCGAGA	-0.135
AACGCCGC	0.355
GTAGTAAC	0.0801
CCCTATAG	-0.109
CGTTTACC	0.0814
GATCCAAC	0.0837
CTTACAAC	-0.137
CTGAGCAG	-0.183
AGCGAGTC	0.0657
AGTGCAAG	-0.126

Sequence	PBM E-score
ATGGCCTC	-0.0258
AACCGAGC	0.371
GAGAATGC	0.0329
CCCCAAGC	0.122
CGGCCGAG	0.449
TCAATAGA	-0.222
ACAACGCC	0.0572
CCTAGGGA	-0.112
GAGCGCCC	0.0793
CACAATTC	-0.0215
TACATAAA	-0.215
AATACCCG	0.329
CTGGCAAA	-0.146
ATCTTCGA	-0.116
GTGCGATA	0.165
ACTATGTA	-0.239
ATGACTTG	-0.0601
ACTCCAAT	-0.18
GCGTGAAA	-0.0808
